# According to publication PMC4336329 (PLoS ONE, 2015):
# Screen size: about 310,000 compounds; about 14,000 (4.5%) showed an effect of 50% or more. The effect is printed as a negative number. Some of the results follow.
# Biological target: human ether-à-go-go-related gene (hERG) potassium channel (human, UniProt Q12809)
# Experiment: primary screen, population patch clamp on CHO cells stably expressing hERG
# 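Note: peak tail current of the secondary pulse compared with the same well before compound.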
# Sequence of human ether-à-go-go-related gene (hERG) potassium channel (Q12809 whole entry, looked up): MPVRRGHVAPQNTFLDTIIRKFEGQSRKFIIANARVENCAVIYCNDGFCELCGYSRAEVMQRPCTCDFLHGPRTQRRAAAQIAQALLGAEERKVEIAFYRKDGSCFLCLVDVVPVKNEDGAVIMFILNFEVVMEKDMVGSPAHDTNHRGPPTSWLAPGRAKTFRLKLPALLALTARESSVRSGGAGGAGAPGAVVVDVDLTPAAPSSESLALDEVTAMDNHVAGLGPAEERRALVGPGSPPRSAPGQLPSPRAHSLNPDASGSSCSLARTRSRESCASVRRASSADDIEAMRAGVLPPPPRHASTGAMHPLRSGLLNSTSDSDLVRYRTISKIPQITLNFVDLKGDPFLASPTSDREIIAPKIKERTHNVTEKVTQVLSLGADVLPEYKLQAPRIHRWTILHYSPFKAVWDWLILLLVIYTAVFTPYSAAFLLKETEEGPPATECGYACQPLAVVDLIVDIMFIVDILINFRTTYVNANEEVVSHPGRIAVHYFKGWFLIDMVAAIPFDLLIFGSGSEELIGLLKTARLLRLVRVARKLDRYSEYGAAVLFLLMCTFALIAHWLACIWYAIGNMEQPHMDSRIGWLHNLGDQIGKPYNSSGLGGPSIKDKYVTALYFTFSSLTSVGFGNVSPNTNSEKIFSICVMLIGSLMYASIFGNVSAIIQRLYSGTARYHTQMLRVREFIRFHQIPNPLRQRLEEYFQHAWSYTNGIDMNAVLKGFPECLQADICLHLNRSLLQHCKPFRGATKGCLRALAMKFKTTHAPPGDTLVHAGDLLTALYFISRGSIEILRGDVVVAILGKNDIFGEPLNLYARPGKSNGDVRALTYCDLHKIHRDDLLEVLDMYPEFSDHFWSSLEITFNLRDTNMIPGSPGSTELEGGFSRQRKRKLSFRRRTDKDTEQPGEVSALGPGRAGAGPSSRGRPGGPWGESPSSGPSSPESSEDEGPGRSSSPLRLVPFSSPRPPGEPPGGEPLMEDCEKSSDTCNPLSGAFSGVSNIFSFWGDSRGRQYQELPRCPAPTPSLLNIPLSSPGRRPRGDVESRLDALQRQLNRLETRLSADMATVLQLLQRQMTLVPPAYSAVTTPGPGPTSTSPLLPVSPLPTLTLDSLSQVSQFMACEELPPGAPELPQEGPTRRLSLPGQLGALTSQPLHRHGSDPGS
row,Compound,"hERG current change (%, negative = inhibition) at 10uM [%]"
1,COc1cccc(N2CCN(C(=O)c3ccc(CS(=O)c4ccc(Cl)cc4)o3)CC2)c1 (stereo not drawn),-42
2,C=CCc1ccc(OCCCCOc2ccc(C(=O)O)cc2)c(OC)c1,14
3,COc1ccc(OC)c(/C=C2\SC(=S)N(Cc3cccnc3)C2=O)c1,12.4
4,O=C(Oc1c(Cl)cc(Cl)c2cccnc12)N1CCCCC1,0.957
5,O=C(NCCO)N1c2ccccc2Sc2ccccc21,5.99
6,COC(=O)CCCC1=CC2=C(c3ccccc3)C(=O)C(C)(OC(=O)C3CCCC3)C(=O)C2=CN1Cc1ccc(OC)cc1 (stereo not drawn),-4.26
7,Cc1ccc2c(c1)N(CC(=O)N1CCCCCC1)C(=O)C(C)O2 (stereo not drawn),-1.06
8,O=C1NC(=S)N/C1=C/C=C/c1ccccc1,-10.6
9,Cc1noc(C)c1S(=O)(=O)NC1CCCc2ccccc21 (stereo not drawn),1.65
10,O=c1cc(Cl)c(-c2ccccc2)nn1Cc1ccc(Cl)cc1,-5.84
11,O=C(NC(=S)N1CCCCC1)c1cccs1,9.19
12,COc1ccc(-c2noc(CCC(=O)NC3CCCCC3)n2)cc1,7.7
13,CCCc1cc(=O)oc2c(C)c(OC(C)C(=O)NCCN3CCOCC3)ccc12 (stereo not drawn),-32.1
14,O=C(Cc1cn(Cc2cccc(Cl)c2)c2ccccc12)N1CCCC1,-50
15,O=C(COc1ccc2c(-c3ccccc3)cc(=O)oc2c1)NCC(O)c1ccccc1 (stereo not drawn),-2.44
16,Cc1cccc(OCC(=O)NCCCNC(=O)c2cnccn2)c1,-4.97
17,CCNC(=O)NC(=O)CSc1ccc2ccccc2c1,24.3
18,Cc1sc2nc3c(C(=O)N4CCCC4)cc(C(=O)c4ccccc4O)cn3c(=O)c2c1C,-30.9
19,O=C(NCc1cc(C(F)(F)F)cc(C(F)(F)F)c1)C1CC(c2cccc([N+](=O)[O-])c2)=NO1 (stereo not drawn),11.8
20,Cc1ccc(CN2CCc3c(OCC(=O)Nc4cc(C)ccc4C)cccc3C2=O)cc1,4.23
21,Cc1cccc(NC(=O)c2nc[nH]c2C(=O)N[C@@H](C)C(=O)OC(C)(C)C)c1,16.4

row,Compound,"hERG current change (%, negative = inhibition) at 10uM [%]"
1,COCCN=C1Sc2nc3c(C)cccc3cc2CN1Cc1ccco1,8.49
2,COc1ccc(-c2nnn(Cc3ccccc3)n2)cc1,8.24
3,COc1ccc(S(=O)(=O)Nc2ccc(NC(C)=O)cc2)cc1Br,-12.1
4,COC(=O)CCC/C=C1/SCC(NC(=O)c2ccccc2)C1O (stereo not drawn),1.49
5,Nc1nnnn1/N=C/c1ccccc1C(F)(F)F,-9.86
6,CCC(C)c1ccccc1N1CC(C(=O)Nc2ccc(C)c(S(=O)(=O)N3CCOCC3)c2)CC1=O (stereo not drawn),-6.77
7,O=C(CNc1cccc2ccccc12)N/N=C/c1ccc([N+](=O)[O-])o1,-13.3
8,Cc1cc(C)cc(N(C(=O)c2csnn2)C(C(=O)NC2CCCC2)c2ccccn2)c1 (stereo not drawn),6.89
9,CN(C)Cc1ccccc1Sc1ccc(O)cc1O.O.O=C(O)/C=C\C(=O)O,-3.84
10,COCC(C)NS(=O)(=O)c1ccc(OC)cc1 (stereo not drawn),8.55
11,CC1CCN(c2nc3c(c(=O)n(C)c(=O)n3C)n2CCSc2nc3ccccc3s2)CC1,-5.51
12,CCCc1nc2oc(C(=O)c3ccccc3)c(N)c2c2c1COC(C)(C)C2,-38
13,O=C(Nc1nccs1)c1cc(-c2ccccc2)nn1-c1ccccc1,1.92
14,O=C(CSc1nc(-c2ccco2)cc(C(F)(F)F)n1)Nc1cccnc1,34.1
15,COc1ccc(CCNC(=O)CC2SC(=NCCc3ccccc3)NC2=O)cc1 (stereo not drawn),-6.72
16,C/C(N)=C(/C#N)C(=O)COC(=O)c1ccncc1,2.13
17,CC12CCC(=O)N1C(C(=O)N1CCN(c3ccccc3)CC1)CS2 (stereo not drawn),-22.7
18,O=C(Nc1ccc2ccccc2c1)/C(=C\c1ccc2c(c1)OCO2)NC(=O)c1ccco1,-13
19,CCOC(=O)C1CCCN(C(=O)CC(c2ccccc2)c2ccccc2)C1 (stereo not drawn),-21.3
20,O=C(CCc1ccccc1)NCc1ccccn1,-9.56
21,COc1ccc(C(=O)NNC(=O)CSc2nnc(-c3cccnc3)o2)cc1,19

row,Compound,"hERG current change (%, negative = inhibition) at 10uM [%]"
1,COc1ccc(Br)cc1-c1nc(CCl)cs1.Cl,6.83
2,COc1ccc(NC(=S)N2CCN(S(=O)(=O)c3ccc(OC)cc3)CC2)cc1,-10.2
3,CCN(CC(=O)Nc1ccc(NC(C)=O)cc1)C(=O)c1cc(S(=O)(=O)N2CCCCCC2)ccc1OC,-6.8
4,CC(=O)c1cc(C)ccc1OC(=O)c1cccc2nc(C)oc12,14.4
5,C=CCn1c(NCc2ccc(N(C)C)cc2)nc2ccccc21,-11.3
6,CCOc1ccc(OCC)c(S(=O)(=O)N2CCCCC2)c1,-12.2
7,CCCCOc1ccc(N(CC(=O)NCc2ccccc2)C(=O)c2csnn2)cc1,-22.1
8,COc1ccc(C(=O)NCCn2cc(SCC(=O)N3CCOCC3)c3ccccc32)cc1,-15
9,COC(=O)[C@H](CCSC)NC(=O)c1cccnc1SC,5.13
10,NC(=O)C1CCN(c2oc(-c3ccccc3F)nc2S(=O)(=O)c2ccc(Cl)cc2)CC1,1.46
11,Cc1c(N=Nc2c(O)[nH]c(=O)[nH]c2=O)c(=O)n(-c2ccccc2)n1C,15.4
12,CS(=O)(=O)N1CCC(Oc2ccccc2C(=O)N2CCC[C@H]2CO)CC1,20.5
13,CCCCN(C)CCN1C(=O)C2C(C(=O)Nc3ccc(C)cc3)C3C=CC2(O3)C1C(=O)NC1CCCCC1 (stereo not drawn),-26.1
14,COc1cc(OC)cc(C(=O)NCC(=O)N2CCCCC2)c1,9.25
15,Cc1cc(O)c2c(c1)C(=O)C13C(=C2O)C(=O)[C@H]2[C@@H](O)[C@@H]1[C@H]1[C@H](O)[C@@H]3C(=O)C3=C(O)c4c(O)cc(C)cc4C(=O)C312 (stereo partly drawn),13.9
16,CCN(CCN(C)C)C(=O)C1CCN(S(=O)(=O)c2c(C)noc2/C=C/c2ccccc2F)CC1,1.98
17,CN(Cc1ccccc1N1CCCC1)C(=O)c1cc2cc(Cl)ccc2o1,-13.4
18,CCCCC(=O)NS(=O)(=O)c1ccc(N=NN2CCOCC2)cc1,4.99
19,C[C@@H]1O[C@@H](O[C@H]2C[C@@H](O)[C@]3(CO)[C@H]4[C@H](O)C[C@]5(C)[C@@H](C6=CC(=O)OC6)CC[C@]5(O)[C@@H]4CC[C@]3(O)C2)[C@H](O)[C@H](O)[C@H]1O,14.6
20,CC(C)CCN1CCC(n2nccc2NC(=O)c2ccc3c(c2)OCO3)CC1,-5.16
21,CC1CCCCC1NC(=O)CNC(=S)N1CC2CC(C1)c1cccc(=O)n1C2 (stereo not drawn),7.4

row,Compound,"hERG current change (%, negative = inhibition) at 10uM [%]"
1,O=C(O)c1cccc(NS(=O)(=O)c2ccc(Cl)c(C(=O)O)c2)c1,30.8
2,COc1ccc(CNC(=O)C2CCCN(Cc3nc(-c4cccc(C)c4)oc3C)C2)cc1 (stereo not drawn),-63.8
3,c1ccc2c(c1)CCc1c-2nc2ccccc2c1N1CCOCC1,-5.95
4,COc1ccc(OC)c(NC(=O)CSc2nnc(C3CCCCC3)n2N)c1,-17.4
5,Cc1ccc(-c2nnn(CC(=O)N(CC(=O)NC3CCCC3)c3ccc(F)cc3)n2)o1,6.41
6,COc1cc(CNCc2ccco2)ccc1OCc1ccccc1,-23.3
7,COc1ccccc1NS(=O)(=O)c1ccc(Cl)c(NC(=S)NC(=O)C2CCCC2)c1,-4.67
8,Cc1ccc(C(C(=O)NC2CCCC2)N(Cc2ccc3c(c2)OCO3)C(=O)c2snc(C(N)=O)c2N)cc1 (stereo not drawn),10.7
9,CCN(CC)c1ccc(NC(=O)C2CCCN(S(=O)(=O)c3cnc[nH]3)C2)c(C)c1 (stereo not drawn),-6.63
10,COc1ccc(CN2CCNC(=O)C2CC(=O)NCC2CCOCC2)c(C)c1C (stereo not drawn),-19.6
11,O=c1[nH]c2c(Br)cnc([N+](=O)[O-])c2[nH]1,-3.18
12,Cc1cc(C(=O)CN2C(=O)NC3(CCC(C)CC3)C2=O)c(C)n1C (stereo not drawn),-7.12
13,O=C(CNC(=O)c1ccccc1F)NCCc1ccc(Cl)cc1Cl,-0.034
14,Fc1cnc(N2CCN(c3ccccc3)CC2)nc1N1CCN(c2ccccc2)CC1,-18.2
15,CC(=O)Nc1ccccc1/C=C/c1ccc2c(C)ccc(O)c2n1,5.05
16,COc1cc(CCC(=O)NC2(C)CCS(=O)(=O)C2)cc(OC)c1OC (stereo not drawn),-6.48
17,CCOCCCn1c(SCC(=O)Nc2cccc(S(=O)(=O)NC3=NCCCCC3)c2)nc2ccccc2c1=O,-48.2
18,Cc1ccc(NC(=O)CCC(=O)Nc2ccc(C)cc2)cc1,12.2
19,CCOc1ccc(C(C)C)cc1S(=O)(=O)n1nc(C)cc1C,0.728
20,O=C1c2ccccc2C2NC(=O)C3(CCCCC3)N12 (stereo not drawn),7.54
21,CCCn1c(SCc2ccc(C(=O)OC)o2)nc2ccccc2c1=O,-14.9
